# Experimental data from article PMC10668032.
# This is one part of the list. At the low end of the ranking the order means little.
# Biological target: SIX1 homeodomain (reference allele) (UniProt Q15475)
# Assay: universal protein binding microarray
# Conditions: Universal all-10-mer PBM (8x60K, AMADID 030236), 300 nM GST-tagged protein, Alexa Fluor 488 anti-GST; buffer, salt, pH and temperature not stated; high values mean tight binding; most listed sequences are background and not binding sites; double strand, one strand shown
row,Sequence,binding signal
1,GCCCCTAC,0.102 E-score
2,CTCTTCCA,-0.117 E-score
3,ATGTCGTC,-0.119 E-score
4,GATATGGA,0.423 E-score
5,ACACACGC,-0.109 E-score
6,TCCGTAAA,0.0655 E-score
7,CTCGGATA,0.375 E-score
8,ACCATTGA,-0.0201 E-score
9,AGGGAAAT,-0.173 E-score
10,CTTCCTGC,-0.239 E-score
11,GACAAGCA,-0.191 E-score
12,CTATGTGC,-0.11 E-score
13,ATATTAAG,0.215 E-score
14,AAATCAAT,-0.13 E-score
15,CAACGACA,-0.0482 E-score
16,CACTCAAA,-0.246 E-score
17,ACGTTACA,-0.221 E-score
18,CTATCTCA,0.256 E-score
19,CTTTATTA,0.035 E-score
20,CTTACTTA,-0.12 E-score
21,TGCGATAA,0.117 E-score
22,AACATGCA,-0.0116 E-score
23,CGTGAGGC,-0.278 E-score
24,ACGCACAA,-0.294 E-score
25,CGAGCATA,0.036 E-score

row,Sequence,binding signal
1,AACTAGGA,-0.112 E-score
2,CACCCAAG,0.151 E-score
3,AGTCAGAA,-0.287 E-score
4,GTATGATA,0.426 E-score
5,AGTATACG,0.26 E-score
6,GACGTCTA,-0.0975 E-score
7,CATAGCGA,-0.0464 E-score
8,CGCCGCAG,-0.124 E-score
9,ACCGGATC,0.417 E-score
10,ATTGCTGG,-0.17 E-score
11,GGCTTTAC,-0.215 E-score
12,CAGAGCGC,-0.318 E-score
13,GTGTATAA,0.134 E-score
14,ATATCCCG,0.42 E-score
15,AACTTAGA,0.122 E-score
16,CAGACGCG,-0.141 E-score
17,AGCAGGAT,0.242 E-score
18,AGGTCTAG,-0.0915 E-score
19,ACGAGGGA,0.0177 E-score
20,GATTACCC,0.191 E-score
21,CGAGTTTC,-0.201 E-score
22,CGTGAGGA,-0.0129 E-score
23,GTGACCTA,-0.14 E-score
24,CCATAAAG,-0.103 E-score
25,CCGCATCC,0.159 E-score

row,Sequence,binding signal
1,ATTTAGAA,-0.21 E-score
2,CCACGGCG,-0.102 E-score
3,GATGTAGC,-0.231 E-score
4,GGTTAACC,-0.129 E-score
5,CCGTCTAC,0.171 E-score
6,AAATTGTC,-0.209 E-score
7,AACCGCTT,-0.273 E-score
8,CCTGAGAG,0.0138 E-score
9,AAGCAGAT,0.109 E-score
10,CCTCGGGA,0.0254 E-score
11,ATTAGACC,0.0991 E-score
12,CTTGTTCA,-0.113 E-score
13,AACATTAG,-0.319 E-score
14,CCCGTCGC,-0.015 E-score
15,GTTGCGGA,-0.119 E-score
16,ATAATCAT,0.131 E-score
17,CAGGACCA,-0.0298 E-score
18,AAAGGGAT,0.253 E-score
19,GCGTGCAA,-0.255 E-score
20,AGAGGCAT,0.0442 E-score
21,GTCATGTA,0.0366 E-score
22,ATACGATG,0.277 E-score
23,CGCGTTCC,0.0496 E-score
24,ACGTAGAA,-0.0543 E-score
25,GGGCTGGA,0.0299 E-score

row,Sequence,binding signal
1,ACTTCGGC,-0.188 E-score
2,CGAGCCGA,-0.0389 E-score
3,CTCGGGGA,0.177 E-score
4,GATCCAAC,0.274 E-score
5,ACGCCGCG,-0.278 E-score
6,CTGTCGCC,-0.123 E-score
7,ACAGACAT,-0.0243 E-score
8,CGCTCAAG,-0.251 E-score
9,CAAGTAAC,-0.0823 E-score
10,AGTAAGGA,-0.101 E-score
11,GGCCACAC,-0.3 E-score
12,CCAGGTTC,-0.0107 E-score
13,ATACTTTC,0.16 E-score
14,CTGGACAA,-0.161 E-score
15,AAGGGCCA,-0.204 E-score
16,ATGGCGTA,0.132 E-score
17,AAATAATC,0.0705 E-score
18,ACGAGCCG,0.0343 E-score
19,CATGGGCA,-0.0172 E-score
20,AGTCACAG,-0.0283 E-score
21,AACGGAGG,-0.143 E-score
22,ATCTATTA,0.0939 E-score
23,AAACACTG,-0.033 E-score
24,TGAAATAA,-0.0822 E-score
25,CAAGCCCA,-0.269 E-score

row,Sequence,binding signal
1,AAAGCAAG,-0.272 E-score
2,CACTCCCA,-0.0912 E-score
3,CGTAGTGC,-0.19 E-score
4,CCTTCCGC,-0.0466 E-score
5,ACGCAAGT,-0.133 E-score
6,CACTTGCC,-0.171 E-score
7,ACCGCAAG,-0.0789 E-score
8,GTATCGAA,0.43 E-score
9,CATATGTA,0.0037 E-score
10,GCATTTTA,-0.179 E-score
11,AGGCGCTA,-0.0853 E-score
12,CAGCAGCA,-0.166 E-score
13,AAAATCAA,-0.232 E-score
14,ATCAGCCA,0.237 E-score
15,AACATACT,-0.0268 E-score
16,GGTCTCTA,-0.201 E-score
17,ACAAAAGC,-0.28 E-score
18,CATCCGAA,0.111 E-score
19,CCTAGCAC,-0.0628 E-score
20,GGGGCGCA,-0.0926 E-score
21,GAATGGCC,-0.219 E-score
22,CCACGGAA,0.0785 E-score
23,GTACATAA,-0.033 E-score
24,CTTAAACC,-0.186 E-score
25,CGGCTTCA,0.0272 E-score

row,Sequence,binding signal
1,ATCGCTTA,0.133 E-score
2,ACTGTTTG,-0.214 E-score
3,CGCCTCGA,0.0119 E-score
4,AGGATTTC,-0.149 E-score
5,GTGGAAAA,-0.0804 E-score
6,TATCTTCA,0.251 E-score
7,ACCTTGGA,-0.314 E-score
8,CCGAAATC,0.0113 E-score
9,TCAGCGCA,-0.266 E-score
10,CTATACTC,0.243 E-score
11,AGGATCTC,0.292 E-score
12,ATCTGGAG,0.247 E-score
13,CAGCCCGC,-0.122 E-score
14,ACGGCGTA,0.0434 E-score
15,ATTCCCCA,-0.07 E-score
16,CATCAAAG,-0.0974 E-score
17,ACGCTCTA,-0.00944 E-score
18,CCTTGAAG,-0.0657 E-score
19,ACACAGAG,-0.0351 E-score
20,AGGTTGCG,-0.263 E-score
21,ACATGTAT,0.226 E-score
22,TAACGCCA,0.0447 E-score
23,GGTCCTTA,0.0117 E-score
24,GGTAAAAA,-0.104 E-score
25,CATTACCA,-0.0648 E-score

row,Sequence,binding signal
1,CCGGATGC,0.0629 E-score
2,CCGGGATC,0.375 E-score
3,GCCGCCGC,-0.191 E-score
4,CGCTGGTC,-0.168 E-score
5,ATCTGCAC,0.118 E-score
6,GGCCCCCA,-0.348 E-score
7,AGGGGAAA,-0.13 E-score
8,ACTAGGAT,0.187 E-score
9,GCAGGGTA,0.199 E-score
10,GACGAGCA,-0.236 E-score
11,ACCCTAGA,0.0547 E-score
12,CAGCAAAG,-0.0666 E-score
13,CGACGGTC,-0.241 E-score
14,AACAGTCG,-0.106 E-score
15,AAAATCCT,-0.241 E-score
16,TAAATGCA,-0.255 E-score
17,CCTCCGGA,0.203 E-score
18,CTGGACGC,-0.188 E-score
19,CTGGATGC,0.00822 E-score
20,AGCAGCGC,-0.167 E-score
21,TACGACGA,-0.109 E-score
22,ACAATGGG,0.0409 E-score
